From article PMC6593972, “Two-Step Activation Mechanism of the ClpB Disaggregase for Sequential Substrate Threading by the Main ATPase Motor” (Cell Reports, 2019)

Molecular target: the molecule itself
Assay: cryo-EM structure; ClpB hexamer with a 20-fold molar excess of casein, 10 min at room temperature in 25 mM Tris-HCl pH 7.4, 25 mM KCl, 10 mM MgCl2, 2 mM ATPγS, 1 mM DTT; single-particle cryo-EM

B1: ClpB-DWB (natural protein)
chain: not shown
notes: ClpB, bacterial disaggregase, with the double Walker B mutations E279A/E678A; also called ClpB-E279A/E678A; double Walker B mutant; source: E. coli ΔclpB::kan cells, purified (Ni-IDA, size exclusion chromatography Superdex S200)
B1: binds.
